Experimental data published in a compilation of properties of binary mixtures (doi:10.1016/j.jct.2021.106489).
Some of these densities may be calculated back from excess volumes.

Assay: xn = mol fraction of the nth substance listed
Details: 100 kPa

CC[n+]1ccn(C)c1.N#C[S-] + CCO
mass density [kg/m3]
Details	298.15 K	303.15 K	308.15 K
x1 = 0.0504	832.7	828.5	824.2
x1 = 0.1005	870.3	866.4	862.4
x1 = 0.2011	–	926.3	–
x1 = 0.2995	973.5	969.8	966.1
x1 = 0.3991	–	1004.1	1000.7
x1 = 0.4984	1034.4	1031.1	1027.7
x1 = 0.5989	1056.6	–	1050
x1 = 0.699	1074.8	1071.4	1068.4
x1 = 0.7966	1089.7	1086.5	1083.2
x1 = 0.8998	1103.3	1100	1096.8
x1 = 0.949	–	1105.4	1102.3
x1 = 1	1114	1110.7	1107.5

CCO + CC[n+]1ccn(C)c1.N#C[S-]
x2 = 0
Details	mass density [kg/m3]
298.15 K	785.6
308.15 K	776.9
